# Laboratory results from the supplement of paper PMC8728848.
# The list shows a part of the results.
# How the values were obtained:
# Assay in all cases: glycan array binding signal (z-score within array); higher = stronger binding
# Conditions in all cases: glycan notation: IUPAC condensed, linker removed
# [1] = target: Gal(b1-4)GlcNAc(b1-3)Gal(b1-4)GlcNAc(b1-2)Man(a1-3)[Gal(b1-4)GlcNAc(b1-3)Gal(b1-4)GlcNAc(b1-2)Man(a1-6)]Man(b1-4)GlcNAc(b1-4)[Fuc(a1-6)]GlcNAc
# Outline: (§1)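 Columns mapping to the same glycan were averaged after glycan names were converted to IUPAC-condensed notation. The data come from 3228 arrays in the Consortium for Functional Glycomics database, limited to those with an available protein sequence. Binding is reported as a within-array Z-score averaged across arrays of one protein sequence and across linkers.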
# [2] = target: Gal(b1-4)GlcNAc(b1-3)Gal(b1-4)GlcNAc(b1-2)[Gal(b1-4)GlcNAc(b1-3)Gal(b1-4)GlcNAc(b1-6)]Man(a1-6)[Gal(b1-4)GlcNAc(b1-3)Gal(b1-4)GlcNAc(b1-2)Man(a1-3)]Man(b1-4)GlcNAc(b1-4)GlcNAc
# Outline: as §1
# [3] = target: Gal(b1-4)GlcNAc(b1-3)Gal(b1-4)GlcNAc(b1-2)[Gal(b1-4)GlcNAc(b1-3)Gal(b1-4)GlcNAc(b1-6)]Man(a1-6)[Gal(b1-4)GlcNAc(b1-3)Gal(b1-4)GlcNAc(b1-2)Man(a1-3)]Man(b1-4)GlcNAc(b1-4)[Fuc(a1-6)]GlcNAc
# Outline: as §1
# [4] = target: Gal(b1-4)GlcNAc(b1-3)Gal(b1-4)GlcNAc(b1-3)Gal(b1-4)GlcNAc
# Outline: as §1
# [5] = target: Gal(b1-4)GlcNAc(b1-3)Gal(b1-4)GlcNAc(b1-3)Gal(b1-4)GlcNAc(b1-2)Man(a1-3)[Gal(b1-4)GlcNAc(b1-3)Gal(b1-4)GlcNAc(b1-3)Gal(b1-4)GlcNAc(b1-2)Man(a1-6)]Man(b1-4)GlcNAc(b1-4)GlcNAc
# Outline: as §1
# [6] = target: Gal(b1-4)GlcNAc(b1-3)Gal(b1-4)GlcNAc(b1-3)Gal(b1-4)GlcNAc(b1-2)Man(a1-3)[Gal(b1-4)GlcNAc(b1-3)Gal(b1-4)GlcNAc(b1-3)Gal(b1-4)GlcNAc(b1-2)Man(a1-6)]Man(b1-4)GlcNAc(b1-4)[Fuc(a1-6)]GlcNAc
# Outline: as §1
# [7] = target: Gal(b1-4)GlcNAc(b1-3)Gal(b1-4)GlcNAc(b1-3)Gal(b1-4)GlcNAc(b1-2)[Gal(b1-4)GlcNAc(b1-3)Gal(b1-4)GlcNAc(b1-3)Gal(b1-4)GlcNAc(b1-6)]Man(a1-6)[Gal(b1-4)GlcNAc(b1-3)Gal(b1-4)GlcNAc(b1-3)Gal(b1-4)GlcNAc(b1-2)Man(a1-3)]Man(b1-4)GlcNAc(b1-4)[Fuc(a1-6)]GlcNAc
# Outline: as §1
# [8] = target: Gal(b1-4)GlcNAc(b1-3)Gal(b1-4)GlcNAc(b1-3)Gal(b1-4)GlcNAc(b1-3)Gal(b1-4)GlcNAc(b1-2)Man(a1-3)[Gal(b1-4)GlcNAc(b1-3)Gal(b1-4)GlcNAc(b1-3)Gal(b1-4)GlcNAc(b1-3)Gal(b1-4)GlcNAc(b1-2)Man(a1-6)]Man(b1-4)GlcNAc(b1-4)GlcNAc
# Outline: as §1
# [9] = target: Gal(b1-4)GlcNAc(b1-3)Gal(b1-4)GlcNAc(b1-3)Gal(b1-4)GlcNAc(b1-3)Gal(b1-4)GlcNAc(b1-2)Man(a1-3)[Gal(b1-4)GlcNAc(b1-3)Gal(b1-4)GlcNAc(b1-3)Gal(b1-4)GlcNAc(b1-3)Gal(b1-4)GlcNAc(b1-2)Man(a1-6)]Man(b1-4)GlcNAc(b1-4)[Fuc(a1-6)]GlcNAc
# Outline: as §1
# [10] = target: Gal(b1-4)GlcNAc(b1-3)Gal(b1-4)GlcNAc(b1-3)Gal(b1-4)GlcNAc(b1-3)Gal(b1-4)GlcNAc(b1-2)[Gal(b1-4)GlcNAc(b1-3)Gal(b1-4)GlcNAc(b1-3)Gal(b1-4)GlcNAc(b1-3)Gal(b1-4)GlcNAc(b1-6)]Man(a1-6)[Gal(b1-4)GlcNAc(b1-3)Gal(b1-4)GlcNAc(b1-3)Gal(b1-4)GlcNAc(b1-3)Gal(b1-4)GlcNAc(b1-2)Man(a1-3)]Man(b1-4)GlcNAc(b1-4)[Fuc(a1-6)]GlcNAc
# Outline: as §1
# [11] = target: Gal(b1-4)GlcNAc(b1-3)Gal(b1-4)GlcNAc(b1-3)Gal(b1-4)GlcNAc(b1-3)Gal(b1-4)GlcNAc(b1-3)Gal(b1-4)GlcNAc(b1-2)Man(a1-3)[Gal(b1-4)GlcNAc(b1-3)Gal(b1-4)GlcNAc(b1-3)Gal(b1-4)GlcNAc(b1-3)Gal(b1-4)GlcNAc(b1-3)Gal(b1-4)GlcNAc(b1-2)Man(a1-6)]Man(b1-4)GlcNAc(b1-4)GlcNAc
# Outline: as §1
# [12] = target: Gal(b1-4)GlcNAc(b1-3)Gal(b1-4)GlcNAc(b1-3)Gal(b1-4)GlcNAc(b1-3)Gal(b1-4)GlcNAc(b1-3)Gal(b1-4)GlcNAc(b1-2)Man(a1-3)[Gal(b1-4)GlcNAc(b1-3)Gal(b1-4)GlcNAc(b1-3)Gal(b1-4)GlcNAc(b1-3)Gal(b1-4)GlcNAc(b1-3)Gal(b1-4)GlcNAc(b1-2)Man(a1-6)]Man(b1-4)GlcNAc(b1-4)[Fuc(a1-6)]GlcNAc
# Outline: as §1
# [13] = target: Gal(b1-4)GlcNAc(b1-3)Gal(b1-4)GlcNAc(b1-3)Gal(b1-4)GlcNAc(b1-3)Gal(b1-4)GlcNAc(b1-3)Gal(b1-4)GlcNAc(b1-2)[Gal(b1-4)GlcNAc(b1-3)Gal(b1-4)GlcNAc(b1-3)Gal(b1-4)GlcNAc(b1-3)Gal(b1-4)GlcNAc(b1-3)Gal(b1-4)GlcNAc(b1-6)]Man(a1-6)[Gal(b1-4)GlcNAc(b1-3)Gal(b1-4)GlcNAc(b1-3)Gal(b1-4)GlcNAc(b1-3)Gal(b1-4)GlcNAc(b1-3)Gal(b1-4)GlcNAc(b1-2)Man(a1-3)]Man(b1-4)GlcNAc(b1-4)[Fuc(a1-6)]GlcNAc
# Outline: as §1
# [14] = target: Gal(b1-4)GlcNAc(b1-3)Gal(b1-4)GlcNAc(b1-3)Gal(b1-4)GlcNAc(b1-3)Gal(b1-4)GlcNAc(b1-3)Gal(b1-4)GlcNAc(b1-3)Gal(b1-4)GlcNAc(b1-2)Man(a1-3)[Gal(b1-4)GlcNAc(b1-3)Gal(b1-4)GlcNAc(b1-3)Gal(b1-4)GlcNAc(b1-3)Gal(b1-4)GlcNAc(b1-3)Gal(b1-4)GlcNAc(b1-3)Gal(b1-4)GlcNAc(b1-2)Man(a1-6)]Man(b1-4)GlcNAc(b1-4)GlcNAc
# Outline: as §1
# [15] = target: Gal(b1-4)GlcNAc(b1-3)Gal(b1-4)GlcNAc(b1-3)GalNAc
# Outline: as §1
# [16] = target: Gal(b1-4)GlcNAc(b1-3)Gal(b1-4)GlcNAc(b1-3)[Gal(b1-4)GlcNAc(b1-3)Gal(b1-4)GlcNAc(b1-6)]GalNAc
# Outline: as §1
# [17] = target: Gal(b1-4)GlcNAc(b1-3)Gal(b1-4)GlcNAc(b1-6)[Gal(b1-3)]GalNAc
# Outline: as §1
# [18] = target: Gal(b1-4)GlcNAc(b1-3)Gal(b1-4)[Fuc(a1-3)]GlcNAc(b1-3)Gal(b1-4)[Fuc(a1-3)]GlcNAc
# Outline: as §1
# [19] = target: Gal(b1-4)GlcNAc(b1-3)GalNAc
# Outline: as §1
# [20] = target: Gal(b1-4)GlcNAc(b1-3)[Fuc(a1-3)GlcNAc(b1-6)]Gal(b1-4)Glc
# Outline: as §1
# [21] = target: Gal(b1-4)GlcNAc(b1-3)[Gal(b1-4)GlcNAc(b1-6)]Gal(b1-4)GlcNAc
# Outline: as §1
# [22] = target: Gal(b1-4)GlcNAc(b1-3)[GlcNAc(b1-6)]Gal(b1-4)GlcNAc
# Outline: as §1
# [23] = target: Gal(b1-4)GlcNAc(b1-6)Gal(b1-4)GlcNAc
# Outline: as §1
# [24] = target: Gal(b1-4)GlcNAc(b1-6)GalNAc
# Outline: as §1
# [25] = target: Gal(b1-4)GlcNAc(b1-6)[Gal(b1-3)]GalNAc
# Outline: as §1
# [26] = target: Gal(b1-4)GlcNAc(b1-6)[Gal(b1-4)GlcNAc(b1-3)]GalNAc
# Outline: as §1
# Gal(b1-4)GlcNAc6P = target: Gal(b1-4)GlcNAc6P
# Outline: as §1
# Gal(b1-6)Gal = target: Gal(b1-6)Gal
# Outline: as §1
# Gal3S(b1-3)GalNAc = target: Gal3S(b1-3)GalNAc
# Outline: as §1
# Gal3S(b1-3)GlcNAc = target: Gal3S(b1-3)GlcNAc
# Outline: as §1
# [27] = target: Gal3S(b1-3)[Fuc(a1-4)]GlcNAc
# Outline: as §1
# Gal3S(b1-4)Glc = target: Gal3S(b1-4)Glc
# Outline: as §1
# Gal3S(b1-4)Glc6S = target: Gal3S(b1-4)Glc6S
# Outline: as §1
# Gal3S(b1-4)GlcNAc = target: Gal3S(b1-4)GlcNAc
# Outline: as §1
# [28] = target: Gal3S(b1-4)[Fuc(a1-3)]Glc6S
# Outline: as §1
# [29] = target: Gal3S(b1-4)[Fuc(a1-3)]GlcNAc
# Outline: as §1
# [30] = target: Gal3S(b1-4)[Fuc(a1-3)]GlcNAc6S
# Outline: as §1
# Gal3S4S(b1-4)GlcNAc = target: Gal3S4S(b1-4)GlcNAc
# Outline: as §1
# Gal3S6S(b1-4)GlcNAc = target: Gal3S6S(b1-4)GlcNAc
# Outline: as §1
# Gal3S6S(b1-4)GlcNAc6S = target: Gal3S6S(b1-4)GlcNAc6S
# Outline: as §1
# Gal4S(b1-4)GlcNAc = target: Gal4S(b1-4)GlcNAc
# Outline: as §1
# Gal4S6S(b1-4)GlcNAc = target: Gal4S6S(b1-4)GlcNAc
# Outline: as §1
# Gal6P(b1-4)GlcNAc = target: Gal6P(b1-4)GlcNAc
# Outline: as §1
# Gal6S(b1-3)GlcNAc = target: Gal6S(b1-3)GlcNAc
# Outline: as §1
# Gal6S(b1-3)GlcNAc6S = target: Gal6S(b1-3)GlcNAc6S
# Outline: as §1
binder,measurement,setting,value
Mg1lysM (Mycosphaerella graminicola) (protein) QRNPITITPQFDCGATNSQQYVARSGDTLTKIAQEIYHDVVGVCDIARANNLADPNRIDAGTPYTIPINCQTYDRNSCL,glycan array binding signal (z-score),[1],-0.069
same,glycan array binding signal (z-score),[2],-0.063
same,glycan array binding signal (z-score),[3],-0.051
same,glycan array binding signal (z-score),[4],-0.082
same,glycan array binding signal (z-score),[5],-0.073
same,glycan array binding signal (z-score),[6],-0.06
same,glycan array binding signal (z-score),[7],-0.066
same,glycan array binding signal (z-score),[8],-0.073
same,glycan array binding signal (z-score),[9],-0.032
same,glycan array binding signal (z-score),[10],-0.018
same,glycan array binding signal (z-score),[11],-0.086
same,glycan array binding signal (z-score),[12],-0.073
same,glycan array binding signal (z-score),[13],-0.042
same,glycan array binding signal (z-score),[14],-0.053
same,glycan array binding signal (z-score),[15],-0.075
same,glycan array binding signal (z-score),[16],-0.075
same,glycan array binding signal (z-score),[17],-0.088
same,glycan array binding signal (z-score),[18],-0.056
same,glycan array binding signal (z-score),[19],-0.056
same,glycan array binding signal (z-score),[20],-0.094
same,glycan array binding signal (z-score),[21],-0.071
same,glycan array binding signal (z-score),[22],-0.092
same,glycan array binding signal (z-score),[23],-0.072
same,glycan array binding signal (z-score),[24],-0.053
same,glycan array binding signal (z-score),[25],-0.072
same,glycan array binding signal (z-score),[26],-0.061
same,glycan array binding signal (z-score),Gal(b1-4)GlcNAc6P,-0.091
same,glycan array binding signal (z-score),Gal(b1-6)Gal,-0.088
same,glycan array binding signal (z-score),Gal3S(b1-3)GalNAc,-0.04
same,glycan array binding signal (z-score),Gal3S(b1-3)GlcNAc,-0.07
same,glycan array binding signal (z-score),[27],-0.061
same,glycan array binding signal (z-score),Gal3S(b1-4)Glc,-0.059
same,glycan array binding signal (z-score),Gal3S(b1-4)Glc6S,-0.067
same,glycan array binding signal (z-score),Gal3S(b1-4)GlcNAc,-0.071
same,glycan array binding signal (z-score),[28],-0.033
same,glycan array binding signal (z-score),[29],-0.019
same,glycan array binding signal (z-score),[30],-0.071
same,glycan array binding signal (z-score),Gal3S4S(b1-4)GlcNAc,-0.098
same,glycan array binding signal (z-score),Gal3S6S(b1-4)GlcNAc,-0.059
same,glycan array binding signal (z-score),Gal3S6S(b1-4)GlcNAc6S,-0.056
same,glycan array binding signal (z-score),Gal4S(b1-4)GlcNAc,-0.084
same,glycan array binding signal (z-score),Gal4S6S(b1-4)GlcNAc,-0.065
same,glycan array binding signal (z-score),Gal6P(b1-4)GlcNAc,-0.068
same,glycan array binding signal (z-score),Gal6S(b1-3)GlcNAc,-0.081
same,glycan array binding signal (z-score),Gal6S(b1-3)GlcNAc6S,-0.065
